Source: the supplement of paper PMC12645437, “Orthogonal IMiD-Degron Pairs Induce Selective Protein Degradation in Cells” (ACS Chemical Biology, 2025)
The other results are listed elsewhere or left out.

Target: no compound (DMSO)
Test: log2 fold change of degron read counts, EGFP-low vs EGFP+ sorted cells; higher = lower degron-EGFP level without compound (poor expression or instability)
Conditions: compound: DMSO control; 18 h
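Note: jurkat cells carrying a lentiviral library of mutant zinc finger degrons fused to EGFP plus mCherry, mCherry+ cells FACS sorted, degron abundance counted by next-generation sequencing.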

Row | Sequence | log2 fold change of degron read counts
1 | FTCPQCGAHFTQKGNLLRHIKL | 0.344
2 | FICNQCGHHFTQKGNLLRHIKL | -0.806
3 | FACEQCGAMFTQKGNLLRHIKL | -1.97
4 | FYCNQCGHWFTQKGNLLRHIKL | 1.21
5 | FECEQCGADFTQKGNLLRHIKL | -3.18
6 | FNCPICGAKFTQKGNLLRHIKL | -0.296
7 | FRCNQCGRCFTQKGNLLRHIKL | -0.514
8 | FLCDICGAIFTQKGNLLRHIKL | -0.0128
9 | FICNVCGAEFTQKGNLLRHIKL | -1.25
10 | FDCNICGAMFTQKGNLLRHIKL | 0.211
11 | FLCEQCGAWFTQKGNLLRHIKL | -0.224
12 | FFCNQCGAWFTQKGNLLRHIKL | 1.23
13 | FDCPQCGAFFTQKGNLLRHIKL | 0.215
14 | FMCDVCGANFTQKGNLLRHIKL | -0.586
15 | FTCNVCGAWFTQKGNLLRHIKL | 0.0965
16 | FICEICGANFTQKGNLLRHIKL | -1.89
17 | FRCNQCGATFTQKGNLLRHIKL | -0.914
18 | FFCPVCGADFTQKGNLLRHIKL | -0.0469
19 | LWCEICGFHCTQKGNLLRHIKL | 1.77
20 | LNCEICGFYCTQKGNLLRHIKL | 1.11
21 | FGCPICGRMFTQKGNLLRHIKL | -0.0123
22 | FDCEICGHMFTQKGNLLRHIKL | 0.309
23 | FKCPICGRDFTQKGNLLRHIKL | -0.583
24 | LECPICGFFCTQKGNLLRHIKL | 1.07
25 | FYCDICGAQFTQKGNLLRHIKL | -1.35

Row | Sequence | log2 fold change of degron read counts
26 | FQCDVCGANFTQKGNLLRHIKL | -1.66
27 | FECNICGAFFTQKGNLLRHIKL | -2.02
28 | FICEICGRKFTQKGNLLRHIKL | -1.61
29 | FHCNQCGHHFTQKGNLLRHIKL | 0.927
30 | FMCNQCGAWFTQKGNLLRHIKL | 0.434
31 | FTCEICGHMFTQKGNLLRHIKL | -1.48
32 | FKCEICGRNFTQKGNLLRHIKL | -2.38
33 | FICPQCGATFTQKGNLLRHIKL | -0.838
34 | FWCNVCGAWFTQKGNLLRHIKL | 1.69
35 | FMCNQCGRLFTQKGNLLRHIKL | 0.337
36 | FHCEICGRPFTQKGNLLRHIKL | -1.96
37 | FWCDICGAQFTQKGNLLRHIKL | -0.104
38 | FGCNQCGRTFTQKGNLLRHIKL | 0.368
39 | FMCEICGRCFTQKGNLLRHIKL | -0.433
40 | FICPVCGAFFTQKGNLLRHIKL | 0.556
41 | FHCEQCGAFFTQKGNLLRHIKL | -1.12
42 | FDCEVCGANFTQKGNLLRHIKL | -0.935
43 | FECPICGAKFTQKGNLLRHIKL | -1.11
44 | FTCNQCGHLFTQKGNLLRHIKL | -0.0508
45 | FSCEVCGAGFTQKGNLLRHIKL | -1.02
46 | FECPQCGASFTQKGNLLRHIKL | -1.49
47 | FGCPVCGAIFTQKGNLLRHIKL | 0.491
48 | FFCDQCGAAFTQKGNLLRHIKL | -1.75
49 | FVCDVCGAMFTQKGNLLRHIKL | -1.27
50 | FNCPQCGATFTQKGNLLRHIKL | -1.17
